{"source": "PubChem BioAssay AID686979", "about": "(National Center for Advancing Translational Sciences (NCATS), 2013)", "note": "The campaign covered roughly 420,000 compounds. About 50,000 (12%) were called active. The shares of active, inactive and inconclusive entries below differ from those in the screen. Calls come from the whole dose curve; as a rule, active = well fitted inhibition curve with a large enough effect; inconclusive = small, poorly fitted or top-dose-only effect; inactive = flat fitted curve, though single readings scatter. Potencies of inconclusive entries are left out as doubtful fits. Where a SMILES comes first, the peptide text is derived from it. [ ]: non-standard residue; d: D form. Orn = NCCC[C@H](N)C(=O)O"}
{"test": "qHTS for Inhibitors of human tyrosyl-DNA phosphodiesterase 1 (TDP1): qHTS in cells in presence of CPT; note: nearly all actives have a fitted effect of over 55% in size; note: potency is the fitted concentration of half-maximal effect; tags give direction and shape of the fitted curve; for activity change, negative = growth inhibition: % is set by controls: 0 for no effect and ±100 for the full control effect", "conditions": "chicken DT40 Tdp1-/-;hTDP1 cells + 20 nM CPT, ATP luminescence, 48 h; activity change, negative = growth inhibition: at 46.2 µM (top of the series)", "in_short": "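Cell growth measured by CellTiter-Glo luminescence after a minimum 48 h, 37 C compound exposure with 20 nM CPT in Tdp1-knockout DT40 cells stably expressing hTDP1, seeded 400/well; qHTS titration format.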"}
{"smiles": "CCCOc1cccc(NC(=O)c2c(-c3ccccc3Cl)noc2C)c1", "Potency": "active: 9.2 µM"}
{"smiles": "COc1ccc(S(=O)(=O)N2CCCCC2)cc1NC(=O)Cc1ccc(Br)cc1", "Potency": "inconclusive [inhibitor, partial curve]"}
{"smiles": "CC(C)C[C@@H]1NC(=O)[C@H](CCCN)NC(=O)[C@H](C(C)C)NC(=O)[C@@H]2CCCN2C(=O)[C@@H](Cc2ccccc2)NC(=O)[C@H](CC(C)C)NC(=O)[C@H](CCCN)NC(=O)[C@H](C(C)C)NC(=O)[C@@H]2CCCN2C(=O)[C@@H](Cc2ccccc2)NC1=O", "note": "(cyclo(V[Orn]L[dF]PV[Orn]L[dF]P))", "Potency": "active: 0.411 µM"}
{"smiles": "CCN(CC)S(=O)(=O)c1ccc2oc(C(=O)NCc3ccc(C)cc3)c(C)c2c1", "Potency": "inconclusive [inhibitor, single point]"}
{"smiles": "Cc1cccc(C)c1NC(=O)Cn1c(=O)n(Cc2ccccc2)c(=O)c2c(C)c(C(=O)N(C)C)sc21", "Potency": "active: 16.4 µM"}
{"smiles": "Cc1cc(C(=O)OCC(=O)NCc2ccc(F)cc2)c2ccccc2n1", "Potency": "inconclusive [inhibitor, single point]"}
{"smiles": "COC(=O)c1cc(NC(=O)Nc2ccccc2)ccc1Cl", "Potency": "inconclusive [inhibitor, single point]"}
{"smiles": "Cc1ccc(S(=O)(=O)NCCC(=O)Nc2ccncc2)cc1C", "Potency": "inconclusive [inhibitor, single point]"}
{"smiles": "CC1C(C)N(C(=O)CCl)c2ccccc2N1C(=O)CCl", "note": "(configuration not stated)", "Potency": "active: 0.58 µM"}
{"smiles": "COc1ccc(Cl)cc1NS(=O)(=O)c1ccc2[nH]c3c(c2c1)CCCC3", "Potency": "inconclusive [inhibitor, single point]"}
{"smiles": "COc1ccc(C(=O)n2cnc3ccccc32)cc1Br", "activity change, negative = growth inhibition": "inactive: -5.8%"}
{"smiles": "C/C(=N\\Nc1nc2ccccc2c(=O)n1O)c1ccco1", "activity change, negative = growth inhibition": "inactive: -27.4%"}
{"smiles": "CC(=O)N(Cc1cccnc1)c1nc2c(F)cc(F)cc2s1", "Potency": "inconclusive [inhibitor, partial curve, poor fit]"}
{"smiles": "Cc1c(C(=O)N2CCN(CC(=O)Nc3ccccc3Cl)CC2)oc2ccc(Br)cc12", "Potency": "inconclusive [inhibitor, single point]"}
{"smiles": "CCn1cnc2sc(C(=O)N(Cc3ccc(N(C)C)cc3)Cc3ccco3)c(C)c2c1=O", "Potency": "inconclusive [inhibitor, single point]"}
{"smiles": "Cc1nn(-c2ccccc2)c(C)c1C(=O)OCC(=O)c1c(N)n(CC(C)C)c(=O)n(C)c1=O", "Potency": "active: 20.6 µM"}
{"smiles": "CN(Cc1ccccc1NS(=O)(=O)c1ccc2ccccc2c1)C1CCCCC1", "Potency": "inconclusive [inhibitor, single point]"}
{"smiles": "CCN(CC)C(=O)c1nc[nH]c1C(=O)N1CCN(C(=O)OC(C)(C)C)CC1", "activity change, negative = growth inhibition": "inactive: -11.5%"}
{"smiles": "Cc1ccc(-c2nc3sc(CCNS(=O)(=O)c4cc(F)ccc4F)c(C)n3n2)cc1", "Potency": "inconclusive [inhibitor, single point]"}
{"smiles": "Cc1ccc(Cl)cc1-n1c(=O)cc(N2CCN(c3ccc(F)cc3)CC2)[nH]c1=O", "Potency": "inconclusive [inhibitor, single point]"}
{"smiles": "Cc1cc(C)c(OCC(=O)Nc2nc3ccccc3[nH]2)c(C)c1", "activity change, negative = growth inhibition": "inactive: 6.41%"}
{"smiles": "Nc1ccc(-n2cnc3cc([N+](=O)[O-])ccc32)cc1", "Potency": "inconclusive [inhibitor, single point]"}
{"smiles": "COC/C=C/C1=CC2=CC(=O)C(C)(OC(=O)c3cnc4ccccc4n3)C(=O)C2=CN1c1ccccc1", "note": "(configuration not stated)", "Potency": "inconclusive [inhibitor, single point]"}
{"smiles": "C=CCn1c(SCc2ccc(Cl)cc2)nc2c1c(=O)[nH]c(=O)n2C", "Potency": "inconclusive [inhibitor, single point]"}
{"smiles": "Clc1ccc(CSC2=NCCCN2)cc1Cl", "activity change, negative = growth inhibition": "inconclusive: -30.8% [inhibitor]"}
{"smiles": "COc1ccc(N(CC(=O)N2CCc3ccccc32)S(=O)(=O)c2c(C)noc2C)cc1", "Potency": "inconclusive [inhibitor, single point]"}
{"smiles": "COc1ccc(S(=O)(=O)NC(CC(=O)NCc2ccc3c(c2)OCO3)c2ccco2)cc1", "note": "(configuration not stated)", "activity change, negative = growth inhibition": "inactive: -21.1%"}
{"smiles": "O=C(Nc1c2c(nn1-c1cccc(Cl)c1)CS(=O)(=O)C2)c1ccc2c(c1)OCO2", "activity change, negative = growth inhibition": "inactive: 1.78%"}
{"smiles": "COc1ccc(N2CCOCC2)c(NC(=O)c2ccc3c(c2)OCO3)c1", "activity change, negative = growth inhibition": "inconclusive: -35.5% [inhibitor]"}
{"smiles": "Cc1cc(CN(C)Cc2cn(C)nc2-c2ccc(Oc3ccccc3)cc2)on1", "Potency": "inconclusive [inhibitor, single point]"}
{"smiles": "COc1ccc(CCNC(=O)c2cc(-c3cccs3)on2)cc1OC", "Potency": "inconclusive [inhibitor, full curve, poor fit]"}
{"smiles": "Fc1ccccc1-c1ccc(/C=N/Nc2nc3ccccc3[nH]2)o1", "Potency": "inconclusive [inhibitor, single point]"}
{"smiles": "Cc1ccc(CN(C(=O)c2csnn2)C(C(=O)NC2CCCC2)c2ccco2)cc1", "note": "(configuration not stated)", "activity change, negative = growth inhibition": "inactive: -27.2%"}
{"smiles": "Cc1ccc(C)n1-c1ccc(-c2ccn[nH]2)cc1", "Potency": "inconclusive [inhibitor, single point]"}
{"smiles": "CC(=O)Nc1ccc(C2=NNC(=Nc3cccc(S(=O)(=O)N(C)C)c3)SC2)cc1", "Potency": "active: 6.51 µM"}
{"smiles": "COc1ccc(-c2cn3cc(Br)cnc3n2)cc1", "Potency": "active: 25.9 µM"}
{"smiles": "O=C(Nc1ccccc1N1CCN(c2ccc(F)cc2)CC1)c1ccccc1", "Potency": "active: 23.1 µM"}
{"smiles": "Cn1c(CCN2CCN(c3ccccn3)CC2)nc2cc(NC(=O)COc3ccccc3)ccc21", "Potency": "inconclusive [inhibitor, single point]"}
{"smiles": "COc1ccc(CNC(=O)CSc2nc3ccccc3nc2Cc2ccccc2)cc1", "activity change, negative = growth inhibition": "inconclusive: -32.9% [inhibitor]"}
{"smiles": "CC(C)C[C@H]1CN([C@@H](Cc2ccccc2)CN2CCC[C@@H]2CN2C(=O)C(=O)NC[C@@H]2Cc2ccccc2)C(=O)C(=O)N1CCc1ccccc1", "Potency": "active: 16.4 µM"}
{"smiles": "CCOC(=O)C1C(=O)OC(C)(C)C1C(CC)C(=O)c1ccccc1", "note": "(configuration not stated)", "activity change, negative = growth inhibition": "inactive: 9.63%"}
{"smiles": "Cc1nc(Br)c(Br)n1Cc1ccccc1", "Potency": "inconclusive [inhibitor, partial curve]"}
